{
  "source": "the supplement of paper PMC7335073",
  "note": "The full ranking holds about 4,100 sequences; the median of “relative CpG methylation activity (normalised to average over all NNNCGNNN flanks)” is about 0.94, and the highest 2% start at about 1.9. The list shows a part of the results.",
  "data": [
    {"molecular_target": "DNMT3B catalytic domain (mouse) (UniProt O88509)", "sequence (O88509 558-859)": "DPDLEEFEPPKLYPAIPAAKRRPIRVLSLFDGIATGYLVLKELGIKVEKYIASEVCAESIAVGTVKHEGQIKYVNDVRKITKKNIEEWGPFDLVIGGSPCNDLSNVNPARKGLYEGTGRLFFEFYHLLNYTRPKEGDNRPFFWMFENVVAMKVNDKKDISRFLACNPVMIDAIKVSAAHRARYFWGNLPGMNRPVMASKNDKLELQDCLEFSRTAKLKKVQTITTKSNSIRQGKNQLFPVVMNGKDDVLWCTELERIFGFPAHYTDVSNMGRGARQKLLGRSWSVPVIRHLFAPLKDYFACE", "experiment": "relative CpG methylation activity (normalised to average over all NNNCGNNN flanks) (relative (1 = mean)); higher = more methylation of the central CpG", "details": "system: in vitro, murine catalytic domain; CpG state: hemimethylated substrate pool; residues: 558-859", "in_short": "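Murine DNMT3A or DNMT3B catalytic domain methylated pooled dsDNA substrates, each carrying a central CpG within 10 random flanking nucleotides, with 0.8 mM S-adenosyl-L-methionine in HEPES pH 7.5 buffer at 37 °C for 60 min. Proteinase K treatment, BsaI-HFv2 digestion, hairpin ligation, bisulfite conversion and two-step PCR preceded Illumina sequencing. Relative methylation activity is the average methylation of a flanking context divided by the mean across all contexts, where a context spans three bases on each side, and every experiment was repeated twice independently.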", "values": [
      {"sequence": "AAGCGCAC", "relative CpG methylation activity": 0.574},
      {"sequence": "CAACGTTG", "relative CpG methylation activity": 0.698},
      {"sequence": "TTGCGTTT", "relative CpG methylation activity": 0.893},
      {"sequence": "TTGCGAGT", "relative CpG methylation activity": 1.17},
      {"sequence": "TCGCGCTC", "relative CpG methylation activity": 0.83},
      {"sequence": "GTTCGGAT", "relative CpG methylation activity": 1.03},
      {"sequence": "CCTCGCGG", "relative CpG methylation activity": 0.599},
      {"sequence": "GGCCGACA", "relative CpG methylation activity": 0.701},
      {"sequence": "CATCGCGG", "relative CpG methylation activity": 0.514},
      {"sequence": "CCTCGTAA", "relative CpG methylation activity": 0.553},
      {"sequence": "TTGCGTGA", "relative CpG methylation activity": 0.744},
      {"sequence": "TGTCGCCT", "relative CpG methylation activity": 0.688},
      {"sequence": "CGACGCAA", "relative CpG methylation activity": 0.51},
      {"sequence": "TATCGTAC", "relative CpG methylation activity": 1},
      {"sequence": "CGGCGGCA", "relative CpG methylation activity": 1.28},
      {"sequence": "ATACGTTG", "relative CpG methylation activity": 0.943},
      {"sequence": "AACCGCTA", "relative CpG methylation activity": 0.438},
      {"sequence": "TACCGCAC", "relative CpG methylation activity": 0.649},
      {"sequence": "GGACGTTT", "relative CpG methylation activity": 0.617},
      {"sequence": "GTTCGGAA", "relative CpG methylation activity": 0.839},
      {"sequence": "TTACGGTC", "relative CpG methylation activity": 2.02},
      {"sequence": "CGTCGTTG", "relative CpG methylation activity": 0.207},
      {"sequence": "GTGCGACC", "relative CpG methylation activity": 1.15},
      {"sequence": "GTTCGACT", "relative CpG methylation activity": 1.08},
      {"sequence": "AGGCGCTC", "relative CpG methylation activity": 0.49},
      {"sequence": "TGACGACT", "relative CpG methylation activity": 1.03},
      {"sequence": "CCTCGGGC", "relative CpG methylation activity": 1.43},
      {"sequence": "ACCCGGTA", "relative CpG methylation activity": 1.22},
      {"sequence": "GAACGCCA", "relative CpG methylation activity": 1.35},
      {"sequence": "GATCGGTT", "relative CpG methylation activity": 1.04},
      {"sequence": "ATACGACA", "relative CpG methylation activity": 1.67},
      {"sequence": "CGACGGCG", "relative CpG methylation activity": 1.93},
      {"sequence": "GGACGTAC", "relative CpG methylation activity": 0.957},
      {"sequence": "CTCCGTTT", "relative CpG methylation activity": 0.739},
      {"sequence": "AATCGTGC", "relative CpG methylation activity": 0.376},
      {"sequence": "CAACGAGC", "relative CpG methylation activity": 1.74},
      {"sequence": "TGTCGTGC", "relative CpG methylation activity": 0.493},
      {"sequence": "GCGCGTCC", "relative CpG methylation activity": 0.656},
      {"sequence": "CCACGTAG", "relative CpG methylation activity": 0.8},
      {"sequence": "GACCGGGG", "relative CpG methylation activity": 0.511},
      {"sequence": "CACCGTGT", "relative CpG methylation activity": 0.272},
      {"sequence": "CAGCGGCC", "relative CpG methylation activity": 1.33},
      {"sequence": "CGGCGCCC", "relative CpG methylation activity": 0.699},
      {"sequence": "TTTCGGTC", "relative CpG methylation activity": 1.72},
      {"sequence": "AGACGGAC", "relative CpG methylation activity": 0.98},
      {"sequence": "GACCGTAA", "relative CpG methylation activity": 0.192},
      {"sequence": "GAACGCCC", "relative CpG methylation activity": 1.41},
      {"sequence": "GAACGTGG", "relative CpG methylation activity": 0.576},
      {"sequence": "ATTCGGGT", "relative CpG methylation activity": 1.25},
      {"sequence": "GGCCGGAA", "relative CpG methylation activity": 0.306},
      {"sequence": "CCACGACG", "relative CpG methylation activity": 1.15},
      {"sequence": "AGCCGTAG", "relative CpG methylation activity": 0.093},
      {"sequence": "GGCCGGCA", "relative CpG methylation activity": 0.942},
      {"sequence": "CAGCGCCA", "relative CpG methylation activity": 0.717},
      {"sequence": "ATTCGCCG", "relative CpG methylation activity": 1.06},
      {"sequence": "GTACGGAG", "relative CpG methylation activity": 1.39},
      {"sequence": "CTTCGTTA", "relative CpG methylation activity": 0.45},
      {"sequence": "AAACGTTA", "relative CpG methylation activity": 0.806},
      {"sequence": "GACCGAAG", "relative CpG methylation activity": 0.801},
      {"sequence": "CAGCGTTG", "relative CpG methylation activity": 0.359},
      {"sequence": "ATGCGCTA", "relative CpG methylation activity": 0.779},
      {"sequence": "CCGCGTAA", "relative CpG methylation activity": 0.515},
      {"sequence": "TTACGGAA", "relative CpG methylation activity": 1.64},
      {"sequence": "GGCCGATC", "relative CpG methylation activity": 1.11},
      {"sequence": "AACCGTGT", "relative CpG methylation activity": 0.157},
      {"sequence": "CTACGCAT", "relative CpG methylation activity": 1.19},
      {"sequence": "CTACGGCT", "relative CpG methylation activity": 2.28},
      {"sequence": "TTCCGCGC", "relative CpG methylation activity": 0.969},
      {"sequence": "CACCGCAT", "relative CpG methylation activity": 0.436},
      {"sequence": "GCACGTGC", "relative CpG methylation activity": 0.799},
      {"sequence": "CTGCGTTG", "relative CpG methylation activity": 0.895},
      {"sequence": "GCCCGACC", "relative CpG methylation activity": 1.33},
      {"sequence": "ATACGTCT", "relative CpG methylation activity": 1.63},
      {"sequence": "AATCGGTG", "relative CpG methylation activity": 1.03},
      {"sequence": "ACCCGATG", "relative CpG methylation activity": 1.27},
      {"sequence": "CGGCGACA", "relative CpG methylation activity": 0.606},
      {"sequence": "CGACGCTG", "relative CpG methylation activity": 0.442},
      {"sequence": "TGCCGTTT", "relative CpG methylation activity": 0.287},
      {"sequence": "CAGCGGTC", "relative CpG methylation activity": 0.91},
      {"sequence": "GCCCGTAT", "relative CpG methylation activity": 0.411},
      {"sequence": "AGCCGGTG", "relative CpG methylation activity": 0.487},
      {"sequence": "CGTCGAGT", "relative CpG methylation activity": 1.36},
      {"sequence": "ATGCGGTA", "relative CpG methylation activity": 1.09},
      {"sequence": "TATCGATA", "relative CpG methylation activity": 1.68},
      {"sequence": "ACGCGTAT", "relative CpG methylation activity": 0.756},
      {"sequence": "GAGCGTCG", "relative CpG methylation activity": 0.77},
      {"sequence": "GATCGAGC", "relative CpG methylation activity": 1.74},
      {"sequence": "TTGCGCCG", "relative CpG methylation activity": 1.22},
      {"sequence": "CGTCGAAC", "relative CpG methylation activity": 1.4},
      {"sequence": "TTTCGGGG", "relative CpG methylation activity": 1.47},
      {"sequence": "AAGCGTGA", "relative CpG methylation activity": 0.333},
      {"sequence": "CCTCGACC", "relative CpG methylation activity": 1.32}
    ]}
  ]
}
